Assay results reported in PubChem BioAssay (Tox21).
Inconclusive results, whose numbers are uncertain, are shown with a selection of clear calls. Where the call is inconclusive, the potency comes from a doubtful curve fit. Where a structure was tested more than once in an assay, its records may differ in their call. The source made the active and inactive calls. Calls come from the whole dose curve; as a rule, active = well fitted inhibition curve with a large enough effect in the repeat runs; inconclusive = weak or mixed curves; inactive = no such curve, though single readings can be large or run the other way.

These compounds were tested against Cytochrome P450 2C19 (Homo sapiens) (UniProt P33261) (assay: Cytochrome P450 Family 2 Subfamily C Member 19 (CYP2C19) small molecule antagonists: luciferase reporter qHTS assay (AID 1671197; note: nearly all actives have a fitted effect of over 65% in size)). Details: P450-Glo CYP2C19 enzyme, luciferin luminescence, 1 h; series mostly up to 115 µM; activity change, negative = inhibition: at the top concentration.
In short: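 Light output is proportional to CYP2C19 activity: proluciferin substrate is converted to luciferin, then detected by a luciferin detection reagent that also stops the 1 h, 37C NADPH-driven reaction. Ketoconazole serves as positive control.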
% is set by controls: 0 for no effect and ±100 for the full control effect; potency is the fitted concentration of half-maximal effect; tags give direction and shape of the fitted curve.

UniProt P33261, sequence (P33261 whole entry, looked up): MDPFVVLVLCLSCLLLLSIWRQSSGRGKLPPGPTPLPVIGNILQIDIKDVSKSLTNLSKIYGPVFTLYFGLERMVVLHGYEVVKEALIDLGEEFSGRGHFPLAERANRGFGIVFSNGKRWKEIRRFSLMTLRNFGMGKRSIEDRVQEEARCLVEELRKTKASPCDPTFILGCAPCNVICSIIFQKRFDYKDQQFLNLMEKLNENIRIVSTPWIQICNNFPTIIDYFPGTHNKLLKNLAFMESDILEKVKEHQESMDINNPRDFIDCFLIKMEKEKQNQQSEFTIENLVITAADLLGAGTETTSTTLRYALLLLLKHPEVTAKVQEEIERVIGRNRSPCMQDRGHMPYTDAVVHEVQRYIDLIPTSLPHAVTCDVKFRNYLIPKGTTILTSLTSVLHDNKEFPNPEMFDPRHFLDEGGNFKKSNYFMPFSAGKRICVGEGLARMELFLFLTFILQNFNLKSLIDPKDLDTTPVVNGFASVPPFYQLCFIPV

SMILES	activity change, negative = inhibition	Potency
CC(=O)Oc1cccc(O)c1	inactive: 11.7% [at 52.9 µM]	–
O=C(O)c1ccccc1	–	inconclusive: 92.1 µM [inhibitor, single point]
Cc1cccc(C)c1	–	inconclusive: 77.3 µM [inhibitor, single point]
CC(CC(=O)O)CC(C)(C)C (stereo not given)	inactive: 12.5%	–
Cc1ccc(OC(=O)CC(C)C)cc1	inactive: 3.16%	–
CC(C)(C)S	–	active: 41.3 µM

What follows are compounds tested against Cytochrome P450 2C9 (Homo sapiens) (UniProt P11712) (assay: Cytochrome P450 Family 2 Subfamily C Member 9 (CYP2C9) small molecule antagonists: luciferase reporter qHTS assay (AID 1671198; note: nearly all actives have a fitted effect of over 50% in size)). Details: P450-Glo CYP2C9 enzyme assay, luciferin luminescence; series mostly up to 115 µM; activity change, negative = inhibition: at the top concentration.
In short: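 Enzyme-substrate mix preincubated with compound 10 min at room temperature; reaction started with NADPH regeneration solution, 1 h 37C. Luminescent luciferin product read after 20 min detection reagent.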

UniProt P11712, sequence (P11712 whole entry, looked up): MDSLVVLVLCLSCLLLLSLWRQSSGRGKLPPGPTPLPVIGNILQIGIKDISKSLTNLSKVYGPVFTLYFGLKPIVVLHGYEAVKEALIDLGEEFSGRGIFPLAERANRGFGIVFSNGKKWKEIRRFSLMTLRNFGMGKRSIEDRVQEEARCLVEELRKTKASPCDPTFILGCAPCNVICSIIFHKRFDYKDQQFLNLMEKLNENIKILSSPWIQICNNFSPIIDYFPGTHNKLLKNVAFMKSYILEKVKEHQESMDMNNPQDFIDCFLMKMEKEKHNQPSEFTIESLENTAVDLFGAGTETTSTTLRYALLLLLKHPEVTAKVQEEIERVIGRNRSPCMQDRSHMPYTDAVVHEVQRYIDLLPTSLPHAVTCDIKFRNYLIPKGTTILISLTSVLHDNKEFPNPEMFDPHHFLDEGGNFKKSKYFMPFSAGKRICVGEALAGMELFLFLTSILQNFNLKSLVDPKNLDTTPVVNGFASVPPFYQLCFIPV

SMILES	activity change, negative = inhibition	Potency
O=C(O)c1ccccc1[N+](=O)[O-]	inactive: 0.915%	–
CC(=O)Oc1cccc(O)c1	inactive: -11.3% [at 53 µM]	–
Cc1ccc(N(CC2=NCCN2)c2cccc(O)c2)cc1	inactive: -7.6% [at 53 µM]	–
Cc1ccc(C)c(N)c1	–	inconclusive: 31.8 µM [inhibitor, partial curve]
O=C(O)c1ccccc1	–	inconclusive: 41.9 µM [inhibitor, partial curve]
N[C@@H](Cc1c[nH]c2ccccc12)C(=O)O	–	inconclusive: 79.6 µM [inhibitor, partial curve, poor fit]
Cc1cccc(C)c1	–	inconclusive: 54.5 µM [inhibitor, partial curve, poor fit]
O=C1CCCC(=O)C1	–	inconclusive: 70.8 µM [inhibitor, partial curve]
CC(CN)CCCN (stereo not given)	–	inconclusive: 11.2 µM [inhibitor, full curve, poor fit]
CC(CC(=O)O)CC(C)(C)C (stereo not given)	inactive: -9.93%	–
CC(C)(c1cc(Br)c(OCC(Br)CBr)c(Br)c1)c1cc(Br)c(OCC(Br)CBr)c(Br)c1 (stereo not given)	–	inconclusive: 21.8 µM [inhibitor, partial curve, poor fit]
CCCCCCCCCCCCCCCCCCO	inactive: 13.9% [at 53 µM]	–
Cc1ccc(OC(=O)CC(C)C)cc1	inactive: -9.12%	–
Cc1ccc(S(=O)(=O)O)cc1C	–	inconclusive: 79.6 µM [inhibitor]
CN1Cc2cc(C(=O)N3CCC(C4CCNCC4)CC3)ccc2N[C@@H](CC(=O)O)C1=O	inactive: 0.566% [at 53 µM]	–
CCO[Si](CCC1CCC2OC2C1)(OCC)OCC (stereo not given)	inactive: -8.08%	–
CC(C)(C)S	–	inconclusive: 36.8 µM [inhibitor, partial curve]
O=C(O)c1cccc(C[C@@H]2COc3ccc(OCc4nc5cc(F)ccc5s4)cc3[C@@H]2O)c1	–	active: 40 µM
NCCCNCCSP(=O)(O)O	inactive: 10.3% [at 10.5 µM]	–
CC(=O)OC[C@H]1O[C@@H](OC(C)=O)[C@H](OC(C)=O)[C@@H]1OC(C)=O	inactive: -5.6% [at 53 µM]	–

SMILES	activity change, negative = inhibition	Potency
CCC(=O)C(=O)CC	–	inconclusive: 66 µM [inhibitor, partial curve]
c1ccc(COCc2ccccc2)cc1	–	inconclusive: 66.1 µM [inhibitor, partial curve, poor fit]
COC(=O)C(C)=O	inactive: -19.8%	–
COC(=O)CC(C(C)=O)C(=O)OC (stereo not given)	–	active: 44.8 µM
O=C1O[C@H](CO)[C@@H](O)[C@H](O)[C@H]1O	–	inactive
O=C(O)CP(=O)(O)O	inactive: 0.88% [at 53 µM]	–
CC(C)(C)c1ccccc1	–	inconclusive: 79.6 µM [inhibitor, partial curve, poor fit]
Cc1c(N=C=O)cccc1N=C=O	–	inconclusive: 81.2 µM [inhibitor, partial curve, poor fit]
O=C(O)c1cccc(C(F)(F)F)c1	–	active: 79.6 µM
C=Cc1ccccc1C=C	–	inconclusive: 224 µM [inhibitor, partial curve]
C=CCN(CC=C)CC=C	–	inconclusive: 79.6 µM [inhibitor, single point]
CCN1CCOCC1	–	inconclusive: 34.9 µM [inhibitor, partial curve]
O=C(O)CCS	inactive: 1.55%	–
Cc1cc(-c2ccccc2)nnc1NCCN1CCOCC1	–	inconclusive: 13.8 µM [inhibitor, full curve]
CCCc1ccc(OCC(=O)N2CCN(C(=O)COc3ccc(CCC)cc3OC)CC2)c(OC)c1	–	active: 3.47 µM
NC(=O)Nc1nc2ccccc2[nH]1	–	inconclusive: 62.8 µM [inhibitor, partial curve, poor fit]
C=CCCCCCCCCO	–	inconclusive: 71 µM [inhibitor, partial curve, poor fit]
CCCSSCCC	inactive: -9.3%	–
CC(=O)NCCO	–	inconclusive: 35.6 µM [inhibitor]
